Hit rate of the full screen: of about 270,000 compounds, about 5,800 (2.1%) were called active. The inconclusive results got no clear call from the source; some entries with a clear call stand among them for comparison. The call rests on the fitted dose curve; in most records, active means well fitted inhibition curve with a large enough effect; inconclusive means small, poorly fitted or top-dose-only effect; inactive means flat fitted curve, though single readings scatter. Potencies beside an inconclusive call are fits to weak or partial responses and may not hold up.
target: Microtubule-associated protein tau (Homo sapiens) (UniProt P10636); assay: qHTS for Inhibitors of Tau Fibril Formation, Thioflavin T Binding; settings: recombinant tau K18 P301L (four-repeat tau fragment), heparin-induced fibrillization, ThT fluorescence; series mostly up to 57.4 µM; activity, negative = inhibition: at the top concentration; further: nearly all actives have a fitted effect of over 55% in size
Sequence of UniProt P10636 (P10636 whole entry, looked up, the tested form may be a part): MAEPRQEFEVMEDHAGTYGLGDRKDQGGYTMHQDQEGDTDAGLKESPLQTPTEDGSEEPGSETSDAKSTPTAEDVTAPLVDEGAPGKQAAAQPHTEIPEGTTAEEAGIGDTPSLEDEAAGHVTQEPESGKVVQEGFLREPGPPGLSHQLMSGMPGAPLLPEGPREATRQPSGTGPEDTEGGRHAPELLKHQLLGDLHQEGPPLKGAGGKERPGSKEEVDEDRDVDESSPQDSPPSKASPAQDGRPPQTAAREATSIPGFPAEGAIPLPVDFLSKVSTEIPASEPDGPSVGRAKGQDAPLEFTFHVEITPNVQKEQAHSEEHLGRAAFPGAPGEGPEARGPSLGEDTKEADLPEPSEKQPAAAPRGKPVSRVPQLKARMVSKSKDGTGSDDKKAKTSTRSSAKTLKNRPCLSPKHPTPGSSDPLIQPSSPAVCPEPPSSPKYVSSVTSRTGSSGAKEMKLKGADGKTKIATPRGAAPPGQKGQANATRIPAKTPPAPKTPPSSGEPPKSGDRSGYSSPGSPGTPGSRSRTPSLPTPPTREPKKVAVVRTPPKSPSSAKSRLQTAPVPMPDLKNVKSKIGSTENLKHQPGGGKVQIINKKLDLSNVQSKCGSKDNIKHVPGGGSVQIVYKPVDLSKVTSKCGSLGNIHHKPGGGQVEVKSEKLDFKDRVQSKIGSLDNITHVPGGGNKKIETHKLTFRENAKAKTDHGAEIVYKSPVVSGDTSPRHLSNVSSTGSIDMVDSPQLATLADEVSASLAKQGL
Outline: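 Heparin-induced fibrillization of the P301L-mutant K18 repeat-domain fragment of human tau was followed by ThT binding in quantitative high-throughput format.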
On the % scale 0 is the no-effect control and ±100 the full control effect; potency means the concentration at half of the fitted maximal effect; tags describe the fitted curve by direction and shape.

| SMILES | Potency | activity, negative = inhibition |
| --- | --- | --- |
| COc1cc(C=O)ccc1OCCOCCOc1c(C)cc(Cl)cc1Cl | inconclusive: 12.6 µM [inhibitor, partial curve] |  |
| O=C(NC(=S)Nc1cccc(S(=O)(=O)NC2=NCCC2)c1)c1cc(-c2ccco2)nc2ccccc12 | inconclusive: 10 µM [inhibitor, partial curve] |  |
| CCCC1Nc2ccc(C(=O)O)cc2C2C=CCC12 (stereo not drawn) | active: 22.4 µM |  |
| COc1ccccc1OCCOc1ccc(/C=C2/C(=N)N3OC(C)=CC3=NC2=O)cc1OC | inconclusive: 2.82 µM [inhibitor, full curve, poor fit] |  |
| CC(=O)N1CCc2c(sc3nc(SCC(C)C)n(-c4ccc(F)c(Cl)c4)c(=O)c23)C1 | inconclusive: 31.6 µM [inhibitor, single point] |  |
| CCN(CC)c1ccc(NC(=O)CSc2nc(-c3cccs3)cc(C(F)(F)F)n2)cc1 | inconclusive: 5.62 µM [inhibitor, partial curve] |  |
| O=S(=O)(Nc1ncccn1)c1ccc(NS(=O)(=O)c2cc(Cl)ccc2Cl)cc1 |  | inactive: -5.96% |
| O=C(c1ccc(COc2ccc(Cl)cc2)o1)N1CCN(Cc2ccc3c(c2)OCO3)CC1 | inconclusive: 22.4 µM [inhibitor, partial curve] |  |
| CC(C)c1ccc(OC(=O)c2cc(-c3ccccc3)on2)cc1 | inconclusive: 14.1 µM [inhibitor, partial curve] |  |
| O=C(NCc1ccccn1)/C(=N/O)c1ccccc1 |  | inactive: -6.3% |
| CCN(CC)c1ccc(NS(=O)(=O)c2cc3[nH]c(=O)c(=O)[nH]c3cc2C)c(C)c1 | inconclusive: 20 µM [inhibitor, single point] |  |
| Cc1cc2oc(C(=O)Nc3ccc(S(=O)(=O)N4CCCCCC4)cc3)cc(=O)c2cc1C |  | inactive: -5.09% |
| O=C(O)c1c2c(nc3ccccc13)/C(=C/c1ccc(O)cc1)CC2 |  | inactive: -17.6% |
| CCCOc1ccc(C2C3=C(Nc4nc(N)[nH]c(=O)c42)c2ccccc2C3=O)cc1 (stereo not drawn) | inconclusive: 2.82 µM [inhibitor, full curve] |  |
| COc1cccc(C(=O)Nc2ccc(NC(=O)C(C)(C)C)cn2)c1 |  | inactive: -6.82% |
| c1cc2c(cc1C1=NNC(=NC3CC3)SC1)OCCO2 | inconclusive: 15.8 µM [inhibitor, single point] |  |
| C/C(=N\NC(=O)Cc1cc(=O)[nH][nH]1)c1cccc([N+](=O)[O-])c1 | inconclusive: 1.26 µM [inhibitor, full curve] |  |
| O=C1C(Br)=Cc2cccc3cccc1c23 | inconclusive: 11.2 µM [inhibitor, partial curve] |  |
| CCCCN(CCCC)Cc1ccc(C(=O)NN)o1 | inconclusive: 35.5 µM [inhibitor, single point] |  |
| CCOc1ccc(NC(=O)C(c2ccccn2)N(C(=O)CCl)c2ccc(F)cc2)cc1 (stereo not drawn) | inconclusive: 7.08 µM [inhibitor, partial curve] |  |
| N=C1/C(=C\c2coc3ccc(O)cc3c2=O)C(=O)N=C2SC=CN12 | active: 12.6 µM |  |
| Cn1c(=O)c2cn(-c3ccc4c(c3)OCCO4)cc2n(C)c1=O | inconclusive: 15.8 µM [inhibitor, partial curve] |  |
| Cc1sc2nc(COC(=O)CNC(=O)c3ccc(C(C)(C)C)cc3)[nH]c(=O)c2c1C | inconclusive: 15.8 µM [inhibitor, partial curve] |  |

| SMILES | Potency | activity, negative = inhibition |
| --- | --- | --- |
| Cc1ccc(Cl)cc1N1CCN(Cc2nnc(-c3ccc4c(c3)OCO4)o2)CC1 | inconclusive: 12.6 µM [inhibitor, partial curve] |  |
| CCN(CC)S(=O)(=O)c1ccc2c(c1)nc(CCC(=O)Nc1ccc3c(c1)OCO3)n2CC | inconclusive: 39.8 µM [inhibitor, single point] |  |
| COc1ccc(C)cc1Nc1nc(-c2c[nH]c3ccccc23)cs1 | inconclusive: 22.4 µM [inhibitor, partial curve] |  |
| Cc1cc(C(=O)NNC(=O)c2ccc(S(=O)(=O)N(C)C)cc2)c(C)o1 |  | inactive: 6.15% |
| Cc1cc(SCC(=O)NC(=O)NCc2ccco2)nc2ccccc12 | inconclusive: 31.6 µM [inhibitor, partial curve] |  |
| O=C(NCCc1ccccc1Cl)c1ccc2c(c1)nc1n2CCCCC1 | inconclusive: 6.31 µM [inhibitor, partial curve] |  |
| CCN(CC)c1ccc(/C=N/Nc2nc(C)cc(=O)[nH]2)c(O)c1 | inconclusive: 28.2 µM [inhibitor, partial curve] |  |
| CC(=O)/C(N=Nc1ccc(-n2ccc(C(F)(F)F)n2)cc1)=C(\C)O | inconclusive: 39.8 µM [inhibitor, single point] |  |
| S=c1[nH]nc(CSc2nc3ccccc3s2)o1 |  | inactive: -15% |
| COc1ccc(Cn2c(=O)c3oc4ccccc4c3n(CC(=O)Nc3ccc(F)cc3F)c2=O)cc1 | inconclusive: 15.8 µM [activator, partial curve, poor fit] |  |
| CC1CC(C)CN(c2ccc([N+](=O)[O-])nc2)C1 (stereo not drawn) | inconclusive: 14.1 µM [inhibitor, partial curve] |  |
| COc1ccc2c(c1)CCc1c(C(=O)Nc3ccc(OC)c(OC)c3)noc1-2 | inconclusive: 1 µM [inhibitor, full curve] |  |
| Cc1ccc(SCc2cc(=O)c3c(=O)n(-c4ccccc4)[nH]c3[nH]2)cc1 | inconclusive: 25.1 µM [inhibitor, single point] |  |
| Cc1ccc(Nc2nc(C)nc(N)c2S(=O)(=O)c2ccccc2)cc1 |  | inactive: 0.944% |
| COc1ccc(/C(N)=N/OC(=O)c2ccc([N+](=O)[O-])c(C)c2)cc1OC | inconclusive: 5.62 µM [inhibitor, partial curve, poor fit] |  |
| COc1ccc(-c2nc3c(C#N)c[nH]n3c2NC2CCCC2)c(OC)c1 | inconclusive: 31.6 µM [inhibitor, single point] |  |
| CCCNC(=O)c1nc(C)n(-c2cc(Cl)ccc2Cl)n1 |  | inactive: 2.34% |
| CCOC(=O)c1ccc(NC(=O)CCc2nc(-c3ccc(C)cc3)no2)cc1 | inconclusive: 25.1 µM [inhibitor, single point] |  |
| CCOc1ccc(N2C(=O)CS/C2=C(\C(Cl)=C(Cl)Cl)[N+](=O)[O-])cc1 | active: 15.8 µM |  |
| CC(/C=C1\SC(=S)N(CCCC(=O)Nc2ccc(C(=O)O)c(O)c2)C1=O)=C\c1ccccc1 | active: 5.01 µM |  |
| COc1ccc(C(=O)NCC(c2ccc(N(C)C)cc2)N2CCc3ccccc32)c(OC)c1 (stereo not drawn) | inconclusive: 3.55 µM [inhibitor, full curve] |  |
| S=c1[nH]c(-c2ccccc2)cn1/N=C/c1ccc(Br)cc1 | inconclusive: 6.31 µM [inhibitor, partial curve] |  |
| COC(=O)c1ccc(COC(=O)c2ccc(-n3cnnn3)cc2)o1 |  | inactive: 5.68% |

| SMILES | Potency | activity, negative = inhibition |
| --- | --- | --- |
| CCSC1=N/C(=C\c2ccc(C)s2)C(=O)S1 | inconclusive: 25.1 µM [inhibitor, partial curve] |  |
| O=C(CSc1ccc(Cl)cc1)Nc1nnc(-c2cccc([N+](=O)[O-])c2)s1 | inconclusive: 8.91 µM [inhibitor, partial curve] |  |
| COc1ccc2c(C(=O)CN3CCN(CCO)CC3)c[nH]c2c1 | inconclusive: 10 µM [inhibitor, partial curve] |  |
| Cc1c2ccccc2c(CSC(=N)N)c2ccccc12 | active: 12.6 µM |  |
| O=C(Oc1c(Br)cc(C(=S)N2CCOCC2)cc1Br)c1ccc(Cl)cc1 | inconclusive: 22.4 µM [inhibitor, partial curve] |  |
| CC1=Nc2nc(N3CCCCC3)c(C#N)c3c4c(nc(c23)N1)N(c1ccc(C(C)C)cc1)C(=O)C4 | active: 12.6 µM |  |
| COc1ccc(CCCC(=O)NCc2ccccc2)cc1C |  | inactive: -0.699% |
| Cc1ccc2c(=O)cc(C(=O)Nc3sc4c(c3C(=O)NCc3cccnc3)CCCC4)oc2c1C | inconclusive: 14.1 µM [inhibitor, partial curve] |  |
| O=C(C1=NN[C@@H]2C(=O)N(c3cccc(F)c3)C(=O)[C@H]12)c1cnccn1 | inconclusive: 11.2 µM [inhibitor, partial curve] |  |
| O=C(CCc1nc2ccccc2s1)NCc1ccccc1F | inconclusive: 22.4 µM [inhibitor, single point] |  |
| COc1ccc2cc(C3CC(c4ccco4)=NN3S(C)(=O)=O)c(Cl)nc2c1 (stereo not drawn) | inconclusive: 39.8 µM [inhibitor, single point] |  |
| CC(=O)c1c(C)nc(-c2ccc(OCC(=O)Nc3ccc(F)cc3)cc2)n1O |  | inactive: -10.2% |
| O=C(CSc1ccc(F)cc1)N1CCN(S(=O)(=O)c2ccccc2)CC1 |  | inactive: -8.5% |
| COc1ccc(C(C(=O)NC2CCCCC2)N(CC2CCCO2)C(=O)C2COc3ccccc3O2)cc1OC (stereo not drawn) |  | inactive: -4.25% |
| COc1ccc(CNC(=O)CSc2nnc(-c3cccnc3)n2N)cc1 |  | inactive: -5.67% |
| Cc1ccc2c(=O)cc(C(=O)Nc3cccc(C(F)(F)F)c3)oc2c1C |  | inactive: 5.95% |
| O=C1/C(=C/c2ccccc2[N+](=O)[O-])COc2ccccc21 | active: 12.6 µM |  |
| O=C(COc1ccc2ccccc2c1Br)NC(=S)Nc1cccc(CO)c1 | inconclusive: 6.31 µM [inhibitor, partial curve] |  |
| CCn1cc(C(=O)OCC(=O)Nc2cccc(C(C)=O)c2)c(=O)c2ccc(C)nc21 |  | inactive: -3.36% |
| Cc1nn(-c2ccccc2)c(C)c1/C=N/NC(=O)c1cc(-c2ccccc2)n[nH]1 | inconclusive: 39.8 µM [activator, single point] |  |
| Cc1c(C(=O)N(C)C)sc(NC(=O)c2cc([N+](=O)[O-])cc([N+](=O)[O-])c2)c1C#N | inconclusive: 15.8 µM [inhibitor, partial curve] |  |
| O=C(Nc1sc2c(c1C(=O)NCC1CCCO1)CCC2)c1cc(=O)c2ccccc2o1 (stereo not drawn) | inconclusive: 4.47 µM [inhibitor, full curve, poor fit] |  |
